Data from the supplement of paper PMC12217912.
This is one part of the list. The full chains were built here from the parent and the listed change. Values near 0.05 are background.

B1: TEV protease; numbered along this chain (parent)
chain: MGESLFKGPRDYNPISSSICHLTNESDGHTTSLYGIGFGPFIITNKHLFRRNNGTLVVQSLHGVFKVKDTTTLQQHLVDGRDMIIIRMPKDFPPFPQKLKFREPQREERICLVTTNFQTKSMSSMVSDTSCTFPSGDGIFWKHWIQTKDGQCGSPLVSTRDGFIVGIHSASNFTNTNNYFTSVPKNFMELLTNQEAQQWVSGWRLNADSVLWGGHKVFMVKPEEPFQPVKEATQL

Variants of: B1
Assay: raw area under fraction-flipped curve 0-4 h after induction (AUC4h, not background-subtracted), DNA-recorder readout of cleavage of the substrate (dimensionless); higher = more cleavage of the substrate by the protease variant
Conditions: temperature: 34 °C; time window: 0-4 h after rhamnose induction
Description: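 In vivo DNA recorder in E. coli TOP10(DE3) ΔrhaA at 34 °C. Each TEVp single-site mutant (parent TEVp 0) is paired with a single-site variant of the 7-mer TEVs (canonical ENLYFQ|S). The substrate sits between flexible linkers in a Bxb1-sfGFP-TEVs-SsrA fusion, so cleavage stabilises Bxb1 and speeds flipping of a recombination array, read by NGS. The value is the raw area under the fraction-flipped curve over 0-4 h after rhamnose induction (AUC4h), with ≥20 reads per time point. It is not background-subtracted; inactive controls average about 0.047.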
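Further: Bxb1 expression induced with 0.2% (w/v) L-rhamnose at OD600 near 0.5, cultures sampled hourly, flipped fraction per protease–substrate barcode pair counted by paired-end Illumina sequencing.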

Row | Variant | area with substrate ENLCFQS | area with substrate ENLDFQS | area with substrate ENLEFQS | area with substrate ENLFFQS | area with substrate ENLHFQS | area with substrate ENLKFQS | area with substrate ENLLFQS | area with substrate ENLNFQS | area with substrate ENLPFQS | area with substrate ENLSFQS | area with substrate ENLWFQS | area with substrate ENLGFQS | area with substrate ENLRFQS | area with substrate ENLTFQS | area with substrate ENLVFQS | area with substrate ENLIFQS | area with substrate ENLQFQS | area with substrate ENLMFQS
1 | I139Q | 0.0702 | 0.0555 | 0.0728 | 0.0964 | 0.0469 | 0.0691 | 0.0795 | 0.0643 | 0.0441 | 0.071 | 0.0899 |  |  |  |  |  |  | 
2 | Q74D | 0.0733 | 0.0567 |  | 0.0971 | 0.0528 | 0.106 | 0.0789 | 0.0731 | 0.0626 | 0.0627 | 0.0563 | 0.0695 | 0.0742 | 0.0721 | 0.103 |  |  | 
3 | D91C | 0.0903 |  |  | 0.0812 | 0.0769 |  | 0.07 | 0.0685 | 0.0576 |  |  |  |  |  |  | 0.0635 | 0.0945 | 
4 | V113H | 0.0804 | 0.066 | 0.0628 | 0.0749 | 0.0659 | 0.0607 |  | 0.0628 |  | 0.0538 |  | 0.0734 |  |  |  | 0.0662 | 0.0515 | 0.0664
5 | K90I | 0.0734 | 0.0601 | 0.0719 | 0.111 | 0.0733 | 0.0722 | 0.0645 | 0.0654 | 0.043 | 0.0618 |  | 0.0588 | 0.0806 |  |  | 0.0686 | 0.0707 | 0.0772
6 | I36N | 0.0394 | 0.0438 | 0.0457 | 0.0687 | 0.0488 | 0.0544 | 0.0308 | 0.0496 | 0.052 | 0.0406 |  | 0.0608 | 0.0544 | 0.0605 |  | 0.0618 | 0.0579 | 0.0482
7 | E231M | 0.0583 | 0.0648 | 0.0673 | 0.0978 | 0.067 | 0.0891 |  | 0.0668 | 0.0809 | 0.0543 | 0.0643 | 0.0754 |  |  |  |  |  | 0.0819
8 | K100W | 0.0771 |  | 0.0531 | 0.0617 | 0.065 |  |  |  |  | 0.0749 | 0.0636 |  | 0.0761 |  |  |  | 0.0721 | 0.0721
9 | Q118N | 0.092 | 0.0588 | 0.0668 | 0.0977 | 0.0793 |  |  | 0.0614 |  | 0.0663 |  |  | 0.0406 |  | 0.078 |  |  | 
10 | N52T | 0.0634 | 0.0565 |  | 0.0693 | 0.0526 | 0.0617 | 0.0505 | 0.064 | 0.0601 | 0.0483 | 0.0496 | 0.0781 | 0.0548 |  |  | 0.0679 | 0.0605 | 
11 | Q59V | 0.0698 |  |  | 0.0455 | 0.0547 |  |  | 0.0669 |  | 0.0663 |  |  | 0.0778 | 0.073 | 0.0927 | 0.0839 |  | 
12 | V183I | 0.0507 |  |  |  | 0.095 | 0.0651 | 0.0564 | 0.0634 | 0.0721 |  | 0.0635 |  | 0.0359 | 0.0999 | 0.0795 | 0.0777 | 0.0706 | 
13 | T114M | 0.0779 | 0.0618 |  | 0.0958 | 0.0728 | 0.0856 | 0.079 | 0.0794 | 0.0466 |  | 0.07 |  | 0.0583 |  |  |  | 0.0651 | 0.068
14 | P155F | 0.0721 | 0.0551 | 0.0642 |  | 0.0572 | 0.0644 |  | 0.0602 | 0.0534 | 0.0517 | 0.0549 | 0.0452 | 0.0568 |  |  | 0.0458 | 0.0665 | 
15 | M188C | 0.063 | 0.062 | 0.0761 |  |  |  |  | 0.0578 |  | 0.0616 |  |  |  | 0.0839 | 0.0667 |  |  | 
16 | N52F | 0.056 | 0.0636 | 0.0833 | 0.052 | 0.0627 | 0.0646 | 0.0488 | 0.0624 | 0.0587 | 0.0593 | 0.0518 |  | 0.0645 |  | 0.0627 |  | 0.0605 | 
17 | R51C | 0.0675 | 0.0574 | 0.0636 | 0.0874 | 0.0742 | 0.0802 | 0.0882 | 0.0897 | 0.0605 |  | 0.075 |  |  | 0.0831 | 0.0685 |  | 0.0722 | 
18 | T192D | 0.0902 | 0.0636 |  | 0.0759 | 0.0766 | 0.0789 |  | 0.0722 | 0.0637 |  |  |  | 0.0652 |  |  |  |  | 0.066
19 | Q74G | 0.0754 | 0.0562 | 0.0574 | 0.0969 |  | 0.0718 |  | 0.0641 | 0.0591 | 0.0647 | 0.0562 |  |  |  | 0.0909 | 0.0684 | 0.068 | 
20 | E3P | 0.0642 |  | 0.115 | 0.0946 | 0.0699 | 0.0765 |  |  | 0.0715 |  | 0.0766 |  |  | 0.0721 |  | 0.064 |  | 
21 | E224M | 0.054 | 0.069 | 0.0755 | 0.0766 |  | 0.0758 | 0.0788 |  |  |  | 0.0655 |  | 0.0617 |  | 0.0853 | 0.0741 |  | 
22 | H215G |  | 0.0662 | 0.0709 | 0.061 | 0.0644 | 0.0466 | 0.0533 | 0.0694 | 0.02 |  | 0.0552 | 0.0744 |  | 0.0391 | 0.0952 | 0.0505 | 0.0655 | 
23 | P134L |  | 0.0691 |  | 0.0722 | 0.0923 | 0.0727 |  | 0.063 | 0.058 | 0.0646 |  |  | 0.0602 |  | 0.0792 | 0.0559 |  | 
24 | E108Y |  | 0.0642 | 0.0615 | 0.0365 | 0.0405 | 0.0546 |  |  | 0.0501 | 0.058 | 0.0636 |  | 0.0462 |  | 0.0663 | 0.0569 | 0.0694 | 
25 | K120L |  | 0.081 | 0.0694 | 0.0746 |  |  | 0.0625 | 0.05 | 0.061 | 0.0519 |  |  |  |  |  | 0.0678 |  | 
26 | P155M |  | 0.0673 | 0.0522 | 0.078 | 0.0477 |  |  | 0.0598 | 0.0557 | 0.0601 | 0.0537 | 0.0754 | 0.062 | 0.0593 |  | 0.0572 | 0.0673 | 
27 | F101Q |  | 0.0421 | 0.0598 | 0.0501 | 0.051 | 0.0698 | 0.0508 | 0.0566 |  | 0.0648 |  | 0.0682 |  | 0.0596 |  |  |  | 
28 | N45D |  | 0.0583 | 0.0578 | 0.0588 | 0.0611 | 0.0655 | 0.0579 | 0.0653 | 0.0613 | 0.0623 | 0.062 |  | 0.0614 |  | 0.0533 |  |  | 
29 | G166T |  | 0.0554 | 0.0619 | 0.0532 | 0.0355 | 0.0411 | 0.0555 |  | 0.0523 | 0.0519 |  |  | 0.0456 |  |  |  |  | 0.033
30 | T72P |  | 0.0614 |  | 0.0707 | 0.059 | 0.0685 | 0.0524 | 0.0685 | 0.0498 | 0.0524 | 0.0504 |  | 0.0544 | 0.0623 |  |  |  | 
